# The list shows a part of the results. Many values rest on one well or one pass, so single values are uncertain.
# Test system: COLO829
# Test: cell count relative to DMSO control; melanoma cells; higher = more viable cells
# Settings: library dose: standard library concentration; 72 h
# 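Also: cells treated in 1,536-well plates, then fixed and DAPI-stained, with nuclei counted from automated high-throughput microscope images.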
row,Structure (SMILES),cell count [%]
1,"CS(=O)(=O)c1ccc(C(=O)Nc2ccc(Cl)c(-c3ccccn3)c2)c(Cl)c1 [vismodegib] + CNC(=O)c1cc(Oc2ccc(NC(=O)Nc3ccc(Cl)c(C(F)(F)F)c3)cc2)ccn1 [sorafenib] (first compound 5 µM, partner dose 2 µM)",91.7
2,"C=C(c1ccc(C(=O)O)cc1)c1cc2c(cc1C)C(C)(C)CCC2(C)C [Bexarotene] + Clc1ccc(Nc2nnc(Cc3ccncc3)c3ccccc23)cc1 [vatalanib] (first compound 10 µM, partner dose 10 µM)",52.3
3,"CN(c1ncccc1CNc1nc(Nc2ccc3c(c2)CC(=O)N3)ncc1C(F)(F)F)S(C)(=O)=O + CO[C@H]1C[C@@H]2CC[C@@H](C)[C@@](O)(O2)C(=O)C(=O)N2CCCC[C@H]2C(=O)O[C@H]([C@H](C)C[C@@H]2CC[C@@H](OCCO)[C@H](OC)C2)CC(=O)[C@H](C)/C=C(\C)[C@@H](O)[C@@H](OC)C(=O)[C@H](C)C[C@H](C)/C=C/C=C/C=C/1C [everolimus] (first compound 0.4 µM, partner dose 0.1 µM)",63.2
4,"NC1(c2ccc(-c3nc4ccn5c(=O)[nH]nc5c4cc3-c3ccccc3)cc2)CCC1 + Cc1cc(N2CCOCC2)cc2[nH]c(-c3c(NC[C@@H](O)c4cccc(Cl)c4)cc[nH]c3=O)nc12 [BMS536924] (first compound 2 µM, partner dose 1 µM)",86.1
5,"NC1(c2ccc(-c3nc4ccn5c(=O)[nH]nc5c4cc3-c3ccccc3)cc2)CCC1 + NCC(=O)Nc1ccc(-n2nc(C(F)(F)F)cc2-c2ccc3c(ccc4ccccc43)c2)cc1 [OSU03012] (first compound 2 µM, partner dose 5 µM)",80.6
6,"CCCS(=O)(=O)Nc1ccc(F)c(C(=O)c2c[nH]c3ncc(Cl)cc23)c1F + Nc1ncn([C@H]2C[C@H](O)[C@@H](CO)O2)c(=O)n1 [decitabine] (first compound 0.4 µM, partner dose 0.5 µM)",91.8
7,"C=C(c1ccc(C(=O)O)cc1)c1cc2c(cc1C)C(C)(C)CCC2(C)C [Bexarotene] + Nc1cccc2c1CN(C1CCC(=O)NC1=O)C2=O [lenalidomide] (first compound 10 µM, partner dose 5 µM)",66.2
8,"C=C(c1ccc(C(=O)O)cc1)c1cc2c(cc1C)C(C)(C)CCC2(C)C [Bexarotene] + NC(=O)Nc1cc(-c2cccc(F)c2)sc1C(=O)N[C@H]1CCCNC1 [AZD7762] (first compound 10 µM, partner dose 0.1 µM)",94.8
9,"CCCS(=O)(=O)Nc1ccc(F)c(C(=O)c2c[nH]c3ncc(Cl)cc23)c1F + O=C(CCCCCCC(=O)Nc1ccccc1)NO [vorinostat] (first compound 0.4 µM, partner dose 0.4 µM)",78.9
10,"CN(c1ncccc1CNc1nc(Nc2ccc3c(c2)CC(=O)N3)ncc1C(F)(F)F)S(C)(=O)=O + CCCS(=O)(=O)Nc1ccc(F)c(C(=O)c2c[nH]c3ncc(Cl)cc23)c1F [PLX4720] (first compound 0.4 µM, partner dose 0.4 µM)",74.3
11,"NC1(c2ccc(-c3nc4ccn5c(=O)[nH]nc5c4cc3-c3ccccc3)cc2)CCC1 + COc1ccc(Cl)c(Nc2nc3ccccc3nc2NS(=O)(=O)c2cccc(NC(=O)C(C)(C)N)c2)c1 [XL147] (first compound 2 µM, partner dose 4 µM)",67.7
12,"CS(=O)(=O)c1ccc(C(=O)Nc2ccc(Cl)c(-c3ccccn3)c2)c(Cl)c1 [vismodegib] + C=CCn1c(=O)c2cnc(Nc3ccc(N4CCN(C)CC4)cc3)nc2n1-c1cccc(C(C)(C)O)n1 [MK1775] (first compound 5 µM, partner dose 0.1 µM)",87.1
13,"CS(=O)(=O)c1ccc(C(=O)Nc2ccc(Cl)c(-c3ccccn3)c2)c(Cl)c1 [vismodegib] + COc1ccc(Cl)c(Nc2nc3ccccc3nc2NS(=O)(=O)c2cccc(NC(=O)C(C)(C)N)c2)c1 [XL147] (first compound 5 µM, partner dose 4 µM)",78.5
14,"NC1(c2ccc(-c3nc4ccn5c(=O)[nH]nc5c4cc3-c3ccccc3)cc2)CCC1 + COc1cc(Nc2ncc(F)c(Nc3ccc4c(n3)NC(=O)C(C)(C)O4)n2)cc(OC)c1OC [Tamatinib] (first compound 2 µM, partner dose 2 µM)",77.1
15,"C=C(c1ccc(C(=O)O)cc1)c1cc2c(cc1C)C(C)(C)CCC2(C)C [Bexarotene] + NCC(=O)Nc1ccc(-n2nc(C(F)(F)F)cc2-c2ccc3c(ccc4ccccc43)c2)cc1 [OSU03012] (first compound 10 µM, partner dose 5 µM)",61.9
16,"CS(=O)(=O)c1ccc(C(=O)Nc2ccc(Cl)c(-c3ccccn3)c2)c(Cl)c1 [vismodegib] + O=C(O)c1ccc(-c2c[nH]c3ncc(-c4ccccc4)cc23)cc1C1CCCC1 [GSK650394] (first compound 5 µM, partner dose 0.8 µM)",91

row,Structure (SMILES),cell count [%]
1,"NC1(c2ccc(-c3nc4ccn5c(=O)[nH]nc5c4cc3-c3ccccc3)cc2)CCC1 + CO[C@@H]1[C@H](N(C)C(=O)c2ccccc2)C[C@H]2O[C@]1(C)n1c3ccccc3c3c4c(c5c6ccccc6n2c5c31)C(=O)NC4 [Midostaurin] (first compound 2 µM, partner dose 0.4 µM)",81.5
2,"CN(c1ncccc1CNc1nc(Nc2ccc3c(c2)CC(=O)N3)ncc1C(F)(F)F)S(C)(=O)=O + Nc1ncn([C@H]2C[C@H](O)[C@@H](CO)O2)c(=O)n1 [decitabine] (first compound 0.4 µM, partner dose 0.5 µM)",49.9
3,"CN(c1ncccc1CNc1nc(Nc2ccc3c(c2)CC(=O)N3)ncc1C(F)(F)F)S(C)(=O)=O + Cn1c(Nc2ccc(C(F)(F)F)cc2)nc2cc(Oc3ccnc(-c4ncc(C(F)(F)F)[nH]4)c3)ccc21 [CHIR265] (first compound 0.4 µM, partner dose 0.4 µM)",41.8
4,"NC1(c2ccc(-c3nc4ccn5c(=O)[nH]nc5c4cc3-c3ccccc3)cc2)CCC1 + O=C(Nc1cccc(Cl)c1)Nc1ncc(CCNc2ncnc3ccsc23)s1 [SNS314] (first compound 2 µM, partner dose 0.004 µM)",71.5
5,"CCCS(=O)(=O)Nc1ccc(F)c(C(=O)c2c[nH]c3ncc(Cl)cc23)c1F + Clc1ccc(Nc2nnc(Cc3ccncc3)c3ccccc23)cc1 [vatalanib] (first compound 0.4 µM, partner dose 10 µM)",65.4
6,"NC1(c2ccc(-c3nc4ccn5c(=O)[nH]nc5c4cc3-c3ccccc3)cc2)CCC1 + C[C@@H](Oc1cc(-c2cnn(C3CCNCC3)c2)cnc1N)c1c(Cl)ccc(F)c1Cl [Crizotinib] (first compound 2 µM, partner dose 1 µM)",53.1
7,"CN(c1ncccc1CNc1nc(Nc2ccc3c(c2)CC(=O)N3)ncc1C(F)(F)F)S(C)(=O)=O + Cn1nnc2c(C(N)=O)ncn2c1=O [temozolomide] (first compound 0.4 µM, partner dose 10 µM)",49.5
8,"NC1(c2ccc(-c3nc4ccn5c(=O)[nH]nc5c4cc3-c3ccccc3)cc2)CCC1 + Cn1c(=O)n(-c2ccc(C(C)(C)C#N)cc2)c2c3cc(-c4cnc5ccccc5c4)ccc3ncc21 [NVP-BEZ235] (first compound 2 µM, partner dose 0.02 µM)",58.1
9,"C=C(c1ccc(C(=O)O)cc1)c1cc2c(cc1C)C(C)(C)CCC2(C)C [Bexarotene] + C#Cc1cccc(Nc2ncnc3cc(OCCOC)c(OCCOC)cc23)c1 [erlotinib] (first compound 10 µM, partner dose 4 µM)",71.1
10,"CCCS(=O)(=O)Nc1ccc(F)c(C(=O)c2c[nH]c3ncc(Cl)cc23)c1F + CC1(C)NC(=O)N(c2ccc([N+](=O)[O-])c(C(F)(F)F)c2)C1=O [nilutamide] (first compound 0.4 µM, partner dose 5 µM)",88.4
11,"NC1(c2ccc(-c3nc4ccn5c(=O)[nH]nc5c4cc3-c3ccccc3)cc2)CCC1 + C#Cc1cccc(Nc2ncnc3cc(OCCOC)c(OCCOC)cc23)c1 [erlotinib] (first compound 2 µM, partner dose 4 µM)",75.2
12,"CCCS(=O)(=O)Nc1ccc(F)c(C(=O)c2c[nH]c3ncc(Cl)cc23)c1F + OCCn1cc(-c2cnc3nnn(Cc4ccc5ncccc5c4)c3n2)cn1 [PF04217903] (first compound 0.4 µM, partner dose 5 µM)",74.9
13,"CS(=O)(=O)c1ccc(C(=O)Nc2ccc(Cl)c(-c3ccccn3)c2)c(Cl)c1 [vismodegib] + Nc1nc(F)nc2c1ncn2[C@@H]1O[C@H](CO)[C@@H](O)[C@@H]1O [fludarabine] (first compound 5 µM, partner dose 1 µM)",96.1
14,"NC1(c2ccc(-c3nc4ccn5c(=O)[nH]nc5c4cc3-c3ccccc3)cc2)CCC1 + C[C@]1(c2nc3c(C(N)=O)cccc3[nH]2)CCCN1 [Veliparib] (first compound 2 µM, partner dose 7 µM)",75.8
15,"CS(=O)(=O)c1ccc(C(=O)Nc2ccc(Cl)c(-c3ccccn3)c2)c(Cl)c1 [vismodegib] + C#Cc1cccc(Nc2ncnc3cc(OCCOC)c(OCCOC)cc23)c1 [erlotinib] (first compound 5 µM, partner dose 4 µM)",62.8

# Reference: the supplement of paper PMC4604168 (melanoma cell lines)
